Reference: the supplement of paper PMC11876631
± gives the standard deviation of the averaged measurements. Laboratory Escherichia coli strains with one amino-acid change in an essential protein, pooled on minimal glucose agar with carbenicillin or gentamicin at twice the control MIC (plus kanamycin and chloramphenicol for the plasmids), 48 h. Fold change of barcode share against drug-free plates; higher = less susceptible. Active = above 20 in both replicates (the paper's putatively resistant). '<' = one read or none on drug, '>' = one read or none on a drug-free plate. Shares are relative, so most strains fall below 1 when a few take over. Listed are strains with at least 15 reads on both drug-free plates, and hits; most hits rest on fewer reference reads. Replicate rank correlation about 0.5. Edits are read from barcodes.

Target: Escherichia coli (laboratory strain)
Assay: barcode share on antibiotic plates over drug-free plates; higher = less susceptible
Settings: antibiotic: gentamicin; 2× MIC (MIC 0.45 µg/mL)
Experimental: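 A pool of E. coli strains, each edited to carry one amino-acid change in an essential protein, was grown for 48 h on minimal glucose agar with or without antibiotic; strain barcodes were sequenced; mean of two replicates.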

Protein	fold change of barcode share
plsC F20W (protein) MLYIFRLIITVIYSILVCVWGSIYCLFSPRNPKHVATFGHMFGRLAPLFGLKVECRKPTDAESYGNAIYIANHQNNYDMVTASNIVQPPTVTVGKKSLLWIPFFGQLYWLTGNLLIDRNNRTKAHGTIAEVVNHFKKRRISIWMFPEGTRSRGRGLLPFKTGAFHAAIAAGVPIIPVCVSTTSNKINLNRLHNGLVIVEMLPPIDVSQYGKDQVRELAAHCRSIMEQKIAELDKEVAEREAAGKV	0.014 ± 0.00041
plsC I23P (protein) MLYIFRLIITVIYSILVCVFGSPYCLFSPRNPKHVATFGHMFGRLAPLFGLKVECRKPTDAESYGNAIYIANHQNNYDMVTASNIVQPPTVTVGKKSLLWIPFFGQLYWLTGNLLIDRNNRTKAHGTIAEVVNHFKKRRISIWMFPEGTRSRGRGLLPFKTGAFHAAIAAGVPIIPVCVSTTSNKINLNRLHNGLVIVEMLPPIDVSQYGKDQVRELAAHCRSIMEQKIAELDKEVAEREAAGKV	< 0.0157
ppc V809A (protein) MNEQYSALRSNVSMLGKVLGETIKDALGEHILERVETIRKLSKSSRAGNDANRQELLTTLQNLSNDELLPVARAFSQFLNLANTAEQYHSISPKGEAASNPEVIARTLRKLKNQPELSEDTIKKAVESLSLELVLTAHPTEITRRTLIHKMVEVNACLKQLDNKDIADYEHNQLMRRLRQLIAQSWHTDEIRKLRPSPVDEAKWGFAVVENSLWQGVPNYLRELNEQLEENLGYKLPVEFVPVRFTSWMGGDRDGNPNVTADITRHVLLLSRWKATDLFLKDIQVLVSELSMVEATPELLALVGEEGAAEPYRYLMKNLRSRLMATQAWLEARLKGEELPKPEGLLTQNEELWEPLYACYQSLQACGMGIIANGDLLDTLRRVKCFGVPLVRIDIRQESTRHTEALGELTRYLGIGDYESWSEADKQAFLIRELNSKRPLLPRNWQPSAETREVLDTCQVIAEAPQGSIAAYVISMAKTPSDVLAVHLLLKEAGIGFAMPVAPLFETLDDLNNANDVMTQLLNIDWYRGLIQGKQMVMIGYSDSAKDAGVMAASWAQYQAQDALIKTCEKAGIELTLFHGRGGSIGRGGAPAHAALLSQPPGSLKGGLRVTEQGEMIRFKYGLPEITVSSLSLYTGAILEANLLPPPEPKESWRRIMDELSVISCDVYRGYVRENKDFVPYFRSATPEQELGKLPLGSRPAKRRPTGGVESLRAIPWIFAWTQNRLMLPAWLGAGTALQKVVEDGKQSELEAMCRDWPFFSTRLGMLEMVFAKADLWLAEYYDQRLVDKALWPLGKELRNLQEEDIKVALAIANDSHLMADLPWIAESIQLRNIYTDPLNVLQAELLHRSRQAEKEGQEPDPRVEQALMVTIAGIAAGMRNTG	0.00862 ± 0.0019
ppc V809P (protein) MNEQYSALRSNVSMLGKVLGETIKDALGEHILERVETIRKLSKSSRAGNDANRQELLTTLQNLSNDELLPVARAFSQFLNLANTAEQYHSISPKGEAASNPEVIARTLRKLKNQPELSEDTIKKAVESLSLELVLTAHPTEITRRTLIHKMVEVNACLKQLDNKDIADYEHNQLMRRLRQLIAQSWHTDEIRKLRPSPVDEAKWGFAVVENSLWQGVPNYLRELNEQLEENLGYKLPVEFVPVRFTSWMGGDRDGNPNVTADITRHVLLLSRWKATDLFLKDIQVLVSELSMVEATPELLALVGEEGAAEPYRYLMKNLRSRLMATQAWLEARLKGEELPKPEGLLTQNEELWEPLYACYQSLQACGMGIIANGDLLDTLRRVKCFGVPLVRIDIRQESTRHTEALGELTRYLGIGDYESWSEADKQAFLIRELNSKRPLLPRNWQPSAETREVLDTCQVIAEAPQGSIAAYVISMAKTPSDVLAVHLLLKEAGIGFAMPVAPLFETLDDLNNANDVMTQLLNIDWYRGLIQGKQMVMIGYSDSAKDAGVMAASWAQYQAQDALIKTCEKAGIELTLFHGRGGSIGRGGAPAHAALLSQPPGSLKGGLRVTEQGEMIRFKYGLPEITVSSLSLYTGAILEANLLPPPEPKESWRRIMDELSVISCDVYRGYVRENKDFVPYFRSATPEQELGKLPLGSRPAKRRPTGGVESLRAIPWIFAWTQNRLMLPAWLGAGTALQKVVEDGKQSELEAMCRDWPFFSTRLGMLEMVFAKADLWLAEYYDQRLVDKALWPLGKELRNLQEEDIKVPLAIANDSHLMADLPWIAESIQLRNIYTDPLNVLQAELLHRSRQAEKEGQEPDPRVEQALMVTIAGIAAGMRNTG	0.0256 ± 0.014
pssA V346Q (protein) MLSKFKRNKHQQHLAQLPKISQSVDDVDFFYAPADFRETLLEKIASAKQRICIVALYLEQDDGGKGILNALYEAKRQRPELDVRVLVDWHRAQRGRIGAAASNTNADWYCRMAQENPGVDVPVYGVPINTREALGVLHFKGFIIDDSVLYSGASLNDVYLHQHDKYRYDRYHLIRNRKMSDIMFEWVTQNIMNGRGVNRLDDVNRPKSPEIKNDIRLFRQELRDAAYHFQGDADNDQLSVTPLVGLGKSSLLNKTIFHLMPCAEQKLTICTPYFNLPAILVRNIIQLLREGKKVEIIVGDKTANDFYIPEDEPFKIIGALPYLYEINLRRFLSRLQYYVNTDQLVQRLWKDDDNTYHLKGMWVDDKWMLITGNNLNPRAWRLDLENAILIHDPQLELAPQREKELELIREHTTIVKHYRDLQSIADYPVKVRKLIRRLRRIRIDRLISRIL	< 0.0195
